Hit rate of the full screen: of about 1,300 compounds, about 25 (2%) were called active. Not shown: some 9% with an inconclusive outcome. Calls come from the whole dose curve; as a rule, active = well fitted activation curve with a large enough effect; inconclusive = small, poorly fitted or top-dose-only effect; inactive = flat fitted curve, though single readings scatter. The list shows a part of the results.
The compounds below were run against Glucagon-like peptide 1 receptor (Homo sapiens) (UniProt P43220) (assay: qHTS of GLP-1 Receptor Agonists: Hit Validation). Details: HEK293 GLP-1R, cAMP-response luciferase, 4-6 h; series mostly up to 46.1 µM; activation: at the top concentration.
Chain of UniProt P43220 (P43220 whole entry, looked up): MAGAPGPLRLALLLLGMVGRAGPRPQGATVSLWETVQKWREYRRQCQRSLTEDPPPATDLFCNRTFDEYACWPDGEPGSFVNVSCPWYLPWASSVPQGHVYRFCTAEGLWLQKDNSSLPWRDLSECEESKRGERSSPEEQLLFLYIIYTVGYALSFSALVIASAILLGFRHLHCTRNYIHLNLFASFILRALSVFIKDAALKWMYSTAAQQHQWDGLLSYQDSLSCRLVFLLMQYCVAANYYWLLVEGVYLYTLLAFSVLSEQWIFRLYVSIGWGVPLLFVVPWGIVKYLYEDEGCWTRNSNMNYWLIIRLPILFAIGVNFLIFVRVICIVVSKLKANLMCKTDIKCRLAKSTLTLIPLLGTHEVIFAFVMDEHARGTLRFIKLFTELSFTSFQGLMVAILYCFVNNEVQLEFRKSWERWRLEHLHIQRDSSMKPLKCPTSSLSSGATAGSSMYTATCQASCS
Description: The overall goal of this project was to develop a novel assay for discovering small molecule ligands for class B1 G protein-coupled receptors (GPCRs). Very few agonists (or inverse agonists) with generally weak activity for this entire group of physiologically important receptors are known to date. To establish proof-of-principle that this critical bottleneck can be overcome with a suitable screening approach, our studies focused on the class B1 receptor for glucagon-like peptide-1 (GLP-1R), a potential therapeutic target for diabetes and neurodegenerative disease. The assay was developed in a "mix and measure" format using a cell-based functional readout. Toward this goal, stably transfected HEK293 cell clones were established that co-express (i) a cAMP-responsive luciferase reporter gene, and (ii) GLP-1Rs that upon ligand interaction either stimulate (agonists) or inhibit (inverse agonists) luciferase activity. In different cell lines to be used for screening, expressed GLP-1Rs are specifically optimized for high sensitivity detection of either weak agonists (hypersensitive receptor) or inverse agonists (constitutively active receptor mutant). In addition, control cell lines were developed that express either the cAMP-responsive reporter gene without recombinant GLP-1Rs (enabling initial exclusion of GLP-1R independent effects of candidate probes), or the reporter gene together with wild type GLP-1Rs (for confirmation of probe activity at this receptor), or the reporter gene in combination with the constitutively active orphan receptor GPR119 (enabling initial exclusion of GLP-1R independent inhibitory effects of candidate inverse agonists). To that end, this assay was optimized for 1536-well format and screened against the MLSMR. NIH Molecular Libraries Probe Production Network [MLPCN] NIH Chemical Genomics Center [NCGC] Grant: NS064851 PI Name: Martin Beinborn, Tufts Medical Center
In a white solid 1536-well plate, 6 uL of cells are dispensed in DMEM without phenol red, 10% Nu serum, and 1% pen-strep medium. The plates are then incubated for 12 hours at 37 deg C at 5% CO2 before 23 nL of compounds are added. After a 4-6 hr incubation at37 deg C and 5% CO2, 3 uL of detection reagent are added and after a 12 min incubation at RT, a luminescent read is obtained on the ViewLux.
Potency is the fitted concentration of half-maximal effect.
Throughout, for activation: % of control where 0% means no effect.

Structure (SMILES)	activation	Potency
O=S(=O)(Nc1ccc(-c2ccc3nncn3n2)cc1)c1cccc(F)c1	inactive: 29.4%	
COc1cc2c(cc1OC)-c1cc(NC3CCCC3)nc(=O)n1CC2	inactive: 27%	
COC(=O)c1oc2ccc(Br)cc2c1-n1cccc1	inactive: -0.591%	
CCCOc1ccc(S(=O)(=O)NCCN2CCOCC2)c2ccccc12	inactive: 0.326%	
Cc1ccc(/C=C/C(=O)N2CCc3ccccc3C2)cc1	inactive: 1.91%	
Cc1ccnc(NC(=O)C23CC4CC(CC(C4)C2)C3)c1	inactive: -0.29%	
CCCCN=C1NN=C(c2cccc([N+](=O)[O-])c2)CS1	inactive: 4.33%	
Nc1nc(SCc2ccccc2)cc(SCc2ccccc2)n1	inactive: 13.2%	
CN(C)S(=O)(=O)c1ccc(C(=O)Nc2ccc(OCC(=O)N3CCOCC3)cc2)cc1	inactive: -0.668%	
COc1cc2c(cc1OC)C1=C(C#N)CCC(=NC(=O)c3ccc(Cl)cc3)N1CC2	inactive: 14.6%	
CCOC(=O)c1c(NC(=O)CNCCO)sc(C)c1C	inactive: 2.11%	
COc1ccc(CNC(C)C(=O)Nc2ccc3ccccc3c2)cc1OC (configuration not stated)	inactive: 0.262%	
O=C(c1ccco1)N1N=C(c2ccc(Br)cc2)CC1(O)C(F)(F)F (configuration not stated)	inactive: 6.22%	
O=c1c2c3c(sc2nc2n1CCC2)CCCCC3	inactive: -0.423%	
COc1ccc(C2=Nn3c(nnc3-c3ccccc3)SC2)cc1OC	inactive: 19.1%	
COc1ccc(CSc2nnc3[nH]c(=O)cc(N)n23)cc1	inactive: 2.2%	
CCCc1nc(Nc2nc3ccccc3o2)nc(C)c1C(=O)OCC	inactive: -0.429%	
C=C(C)CSc1nc2c(c(=O)[nH]c(=O)n2C)n1Cc1ccccc1	inactive: 6.81%	
COc1ccc(C2=Nn3c(nnc3-c3ccccc3Cl)SC2)cc1OC1CCOC1 (configuration not stated)		active: 13 µM
COc1ccc(CNC(=O)CN2CCC(NC(=O)c3ccccc3C)CC2)cc1	inactive: 0.0876%	
COC(=O)c1ccc2c(=O)[nH]c(COC(=O)c3[nH]c(C)c(C(C)=O)c3C)nc2c1	inactive: -0.418%	
CC(C)(C)c1cc2cccnc2n1Cc1ccccc1	inactive: -0.512%	
COc1cc(-c2noc(C)c2/C=C/c2ccc(N)cc2)cc(OC)c1OC	inactive: 23.7%	
c1cc2c(cc1C1=Nn3c(nnc3C3CCCCC3)SC1)OCO2	inactive: 18.3%	

Structure (SMILES)	activation	Potency
COc1ccc(NC(=O)CSc2ccc(-c3cccs3)nn2)c(OC)c1	inactive: 11.2%	
CC(=O)COc1ccc2c3c(c(=O)oc2c1C)CCCCC3	inactive: 18.1%	
c1ccc(-c2cc(N3CCCCC3)ncn2)cc1	inactive: 0.372%	
CN(CCOc1ccccc1)CC(=O)Nc1ccc(Cl)cc1[N+](=O)[O-]	inactive: 8.53%	
CC1COC(Cn2c3ccccc3c3ccccc32)O1 (configuration not stated)	inactive: 12.7%	
CC(N=Cc1nc(-c2ccccc2)oc1O)c1ccccc1 (configuration not stated)	inactive: 0.223%	
Cc1nc(C)c(-c2csc(Nc3ccc(O)cc3C)n2)s1	inactive: 0.131%	
C=CCOc1nc2c(c(=O)n(C)c(=O)n2C)n1Cc1ccccc1Cl	inactive: 4.97%	
Cc1cccc(-c2c3c(=O)n(C)c(=O)n(C)c3cn2C(C)C)c1	inactive: 17.2%	
COc1cc2c(cc1OC)/C(=C/C(=O)c1ccccc1)NCC2	inactive: 26.6%	
COC(=O)c1cc(NC2c3ncccc3C(=O)N2Cc2ccccc2)cc(C(=O)OC)c1 (configuration not stated)	inactive: -0.366%	
CCCc1nc(SCC(=O)c2ccc(OC)cc2)c2ccccc2n1	inactive: 6.34%	
COc1ccc2c(CN(C)Cc3ccccc3)cc(=O)oc2c1	inactive: 1.91%	
COCCCC/C(=N\OCCN)c1ccc(C(F)(F)F)cc1	inactive: 24.7%	
COc1ccc(/C=N/Nc2snc(SC)c2C#N)cc1OC	inactive: 13.7%	
CCOC(=O)C1CCN(c2nc3c(C)cccn3c(=O)c2/C=C(\C#N)S(=O)(=O)c2ccccc2)CC1	inactive: 6.54%	
O=C(CNC1CCCC1)Nc1ccc(N2CCCCCC2)cc1	inactive: 3.15%	
COc1cc2c(cc1OC)-c1cc(OCCN3CCOCC3)nc(=O)n1CC2	inactive: 11.2%	
O=C(C1CCCN(Cc2ccccc2)C1)N1CCCCC1 (configuration not stated)	inactive: -0.604%	
COC(=O)C1=C(C)NC2=C(C(=O)CCC2)C1c1ccc(-c2ccsc2C(=O)OC)o1 (configuration not stated)	inactive: 10.7%	
Cc1nc(N2CCOCC2)c2cc(-c3ccccc3)sc2n1		active: 8.2 µM
O=C(c1ccccc1-c1nc(-c2ccc(Cl)cc2)no1)N1CCCC1	inactive: -0.765%	
Cc1ccc(CNCCCSc2ncccn2)cc1	inactive: 17.6%	
CC(=O)Nc1ccc(CC(=O)NCCC(c2ccccc2)c2ccccc2)cc1	inactive: -0.669%	

Structure (SMILES)	activation	Potency
COc1ccc(Cc2noc(-c3ccc(OC)c(OC)c3)n2)cc1OC	inactive: 7.14%	
Cc1ccccc1Nc1nc(N)nc(COC(=O)c2cccc(S(=O)(=O)N(C)C)c2)n1	inactive: 7.48%	
COc1cc(/C=N/NC(=O)c2cc(-c3ccccc3Cl)nc3ccccc23)cc(OC)c1O	inactive: 10.5%	
CN(C)C=Nc1c(I)cc(I)c(CCC(=O)O)c1I	inactive: 0.326%	
COC(=O)CCSCC(=O)N1N=C(c2ccc(OC)cc2)CC1c1cccc(OC)c1OC (configuration not stated)	inactive: 3.02%	
CCn1c2ccc(F)cc2c2nnc(SCCN3CCOCC3)nc21	inactive: 9.39%	
CC(C)(C)Nc1nc(Cl)nc(NCc2ccccc2)n1	inactive: -0.349%	
COc1cccc(Cn2c(N)c(C#N)c3nc4ccccc4nc32)c1OC	inactive: 7.89%	
Nc1ccc(S(=O)(=O)NC(=O)c2ccccc2)cc1	inactive: -0.525%	
O=C(O)Cn1c(C(=O)Nc2nc(-c3ccccc3Cl)cs2)cc2ccccc21	inactive: -0.419%	
COc1ccccc1NC(=O)C(C)OC(=O)CCCc1c[nH]c2ccccc12 (configuration not stated)	inactive: 1.94%	
Cc1ccc(NC(=O)COc2ccc(CCO)cc2-n2nc3ccccc3n2)cc1C	inactive: 27.2%	
COc1ccc(Cn2c(SCC#N)nc3ccc(N4CCOCC4)cc3c2=O)cc1	inactive: 19.6%	
Cn1cncc1C#Cc1c(-c2ccsc2)sc2ccccc12	inactive: 12.7%	
CCOC(=O)c1c(NC(=O)Cn2cnc([N+](=O)[O-])n2)sc(C)c1C	inactive: -0.609%	
COCCn1c(SCC(=O)Nc2cc(OC)ccc2OC)nc2c(c1=O)SC(C)C2 (configuration not stated)	inactive: 2.96%	
CCNc1nn2ccccc2c1/C=C(\C#N)C(=O)OCC	inactive: 3.68%	
Cc1[nH]c2ccccc2c1/C=C/C(=O)c1ccncc1	inactive: 3.27%	
CCOC(=O)c1c(NC(=O)CN2C(=O)NC3(CCCCC3C)C2=O)sc(C)c1CC (configuration not stated)	inactive: 7.96%	
Cc1cc(Cl)c2oc(C(=O)N(CCO)Cc3ccccc3)c(C)c2c1	inactive: 19.2%	
N#Cc1c(Nc2ccccc2Cl)s[nH]c1=O	inactive: -0.676%	
F[B-](F)(F)COCc1ccccc1Br	inactive: 15.4%	
CCOc1ccc(OCC)c(NC(=O)CSc2nc3cccnc3n2C)c1	inactive: 3.91%	
COc1ccc(-c2coc3c(C(=O)NCc4ccc(OC)c(OC)c4)cccc23)c(C)c1	inactive: 11.3%	
